# Several values for one entry are separate records, joined by “and”; a condition that tells them apart may be missing. Equal entries are not always repeated. The inconclusive results got no clear call from the source; some entries with a clear call stand among them for comparison. For part of these data: Potencies beside an inconclusive call are fits to weak or partial responses and may not hold up. Activity calls are given as the source filed them. Calls follow the shape of the dose curve; as a rule, active = well fitted curve in the direction sought with a large enough effect; inconclusive = small, poorly fitted or top-dose-only effect, or another doubt; inactive = no such curve, though single readings can be large; an effect the other way counts as inactive or inconclusive.
# Key:
# [1] = qHTS to identify inhibitors of the type 1 interferon - major histocompatibility complex class I in skeletal muscle: primary screen against the NCATS Mechanism Interrogation Plate v5.0 (MIPE) Libary (AID 1347411); details: iHSKM cells + IFN-b, HiBiT-tagged MHC-I luminescence, 24 h; activity change, negative = inhibition: at 45.8 µM (top of the series); also: nearly all actives have a fitted effect of over 65% in size; also: potency is read from the fitted curve at half-maximal effect;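 as to activity change, negative = inhibition: plate controls were vehicle for no effect and reference inhibitor for full effect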
# Outline: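 Seed engineered human myoblasts (HLA-B HiBit) in medium without dexamethasone containing 4 ng/ml IFN-beta; after 1 hr add compound titrations (top 46 uM final). Incubate 24 hrs at 37 C, lyse 10 min with HiBiT reagent, read luminescence.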
# [2] = Primary qHTS for inhibitors of nuclear receptor binding SET domain protein 2 (NSD2) in an isogenic RCH-ACV NSD2 p.E1099K mutant (9B) (AID 1645876); also: nearly all actives have a fitted effect of over 70% in size; also: potency is read from the fitted curve at half-maximal effect
# [3] = Primary qHTS for inhibitors of nuclear receptor binding SET domain protein 2 (NSD2) in an RCH-ACV wild type WT cells (2C) (AID 1645877); also: potency is read from the fitted curve at half-maximal effect; nearly all actives have a fitted effect of over 70% in size
# [4] = target: Phospholipid hydroperoxide glutathione peroxidase GPX4 (Homo sapiens) (UniProt P36969); experiment: Primary qHTS Assay for Inhibitors of Recombinant Selenoprotein Glutathione Peroxidase 4 (GPX4) (AID 1845192); also: potency is read from the fitted curve at half-maximal effect; nearly all actives have a fitted effect of over 65% in size
# Chain of UniProt P36969 (P36969 whole entry, looked up): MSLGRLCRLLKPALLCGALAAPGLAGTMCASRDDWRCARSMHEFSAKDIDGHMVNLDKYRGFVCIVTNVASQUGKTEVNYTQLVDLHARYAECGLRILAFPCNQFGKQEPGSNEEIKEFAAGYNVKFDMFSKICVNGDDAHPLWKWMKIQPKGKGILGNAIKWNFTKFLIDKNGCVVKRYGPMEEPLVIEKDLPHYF
# Outline: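 Steps: GPX4 plus compound, 30 min RT; add GR/GSH/NADPH master mix; start with cumene hydroperoxide; read 340/450 nm fluorescence at 0 and 15 min. Finals were 200 nM GPX4, 1 mM GSH, 0.5 mM CHP, 0.5 mM NADPH, 100 nM GR.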
# [5] = qHTS assay to identify inhibitors of the type 1 interferon - major histocompatibility complex class I in skeletal muscle: Counter screen cell viability and HiBit confirmation (AID 1347412); details: iHSKM muscle cells + IFN-b, HiBiT or CellTiter-Glo, 24 h; Viability; at 45.9 µM (top of the series); also: % is scaled to controls: 0 for no effect and ±100 for the full control effect; nearly all actives have a fitted effect of over 60% in size
# Outline: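 After 24 h with human IFN-beta (4 ng/ml) and compound titrations (top 46 uM final, 1:3, 12 points), HLA-B HiBit myoblasts were lysed for either Nano-Glo HiBiT luminescence or CellTiter Glo viability on paired plates.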
# [6] = target: Glutathione peroxidase 1 (Homo sapiens) (UniProt P07203); experiment: Primary qHTS Assay for Inhibitors of Recombinant Selenoprotein Glutathione Peroxidase 1 (GPX1) (AID 1845191); also: potency is read from the fitted curve at half-maximal effect; nearly all actives have a fitted effect of over 65% in size
# Chain of UniProt P07203 (P07203 whole entry, looked up): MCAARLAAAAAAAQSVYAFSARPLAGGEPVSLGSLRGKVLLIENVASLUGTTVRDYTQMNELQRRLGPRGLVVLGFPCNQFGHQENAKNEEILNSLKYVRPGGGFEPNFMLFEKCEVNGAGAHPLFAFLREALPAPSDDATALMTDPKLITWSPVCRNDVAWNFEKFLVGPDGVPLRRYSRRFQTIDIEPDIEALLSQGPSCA
# Outline: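 GR-coupled readout: NADPH consumption tracked by fluorescence, ex 340/em 450 nm, at t=0 and after 15 min at RT. Final mix 10 nM GPX1, 1 mM GSH, 0.5 mM CHP, 0.5 mM NADPH, 100 nM GR, 0.01% BSA, following 30 min enzyme–compound preincubation.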
# Tags tell the direction and shape of the fitted curve.
smiles,measurement,setting,value
C=CC(=O)N1CC[C@@H](Oc2nc(Nc3ccc(N4CCC(N5CCN(C)CC5)CC4)cc3)c(C(N)=O)nc2CC)C1,Potency,[1],"inconclusive: 11.4 µM [inhibitor, single point]"
same,Potency,[2],active: 0.91 µM
CCc1c(-c2ccccc2C)nc2c(C#N)c[nH]n2c1=O,Potency,[1],active: 829 nM and active: 1.31 µM
same,Potency,[3],"inconclusive: 26.3 µM [inhibitor, single point]"
same,Potency,[4],"inconclusive: 32.1 µM [inhibitor, partial curve, poor fit]"
same,"activity change, negative = inhibition",[5],inactive: 16.2% and inactive: -8.52%
CN(CCOc1ccc(-c2ccc3c(c2)OCO3)cc1C(C)(C)C)CC(=O)O,Potency,[1],inactive
same,Potency,[2],"inconclusive: 23.5 µM [inhibitor, single point]"
same,Potency,[3],active: 20.9 µM
CC(C)NC(=O)C1CCC(n2c(NC(=O)c3ccc(F)cc3)nc3ccc(CN4CCC(C(C)(C)O)CC4)cc32)CC1 (stereo not given),Potency,[1],"inconclusive: 8.06 µM [inhibitor, partial curve, poor fit]"
same,Potency,[2],"inconclusive: 11.5 µM [inhibitor, partial curve]"
same,Potency,[3],"inconclusive: 9.1 µM [inhibitor, partial curve]"
O=C(c1ccc(Nc2nc(C3CC3)cn3c(-c4cn[nH]c4)cnc23)c(F)c1)N1CCOCC1,Potency,[1],"inconclusive: 16.5 µM [inhibitor, partial curve]"
same,Potency,[2],active: 9.34 µM
CN[C@@H](C)C(=O)N[C@H](C(=O)N1CCC[C@H]1c1nc(C(=O)c2ccc(F)cc2)cs1)C1CCCCC1,Potency,[1],"inconclusive: 29.4 µM [inhibitor, partial curve]"
same,Potency,[2],"inconclusive: 33.2 µM [inhibitor, single point]"
same,Potency,[3],"inconclusive: 37.2 µM [inhibitor, single point]"
O=C(/C=C/c1ccc(CN(CCO)CCc2c[nH]c3ccccc23)cc1)NO,Potency,[1],active: 0.186 µM
same,Potency,[2],active: 0.132 µM
C[C@H]1CN(C2COC2)CCN1c1ccc(Nc2cc(-c3ccnc(N4CCn5c(cc6c5CC(C)(C)C6)C4=O)c3CO)cn(C)c2=O)nc1,Potency,[1],inactive
same,Potency,[2],"inconclusive: 20.9 µM [inhibitor, partial curve]"
same,Potency,[3],"inconclusive: 16.6 µM [inhibitor, partial curve]"
CNC(=O)CCc1cc(-c2ccc(-c3ccc(C(F)(F)F)cc3)cc2)n(-c2ccc(N3CCNCC3)cc2)n1,Potency,[1],"inconclusive: 37 µM [inhibitor, single point]"
same,Potency,[2],"inconclusive: 2.95 µM [inhibitor, full curve, poor fit]"
same,Potency,[6],"inconclusive: 29 µM [inhibitor, single point]"
Nc1cccc2c1CN([C@H]1CCC(=O)NC1=O)C2=O,Potency,[1],inactive
same,Potency,[2],"inconclusive: 1.48 µM [inhibitor, full curve]"
same,Potency,[3],"inconclusive: 0.742 µM [inhibitor, full curve]"
CCc1cc(/C(C)=N/OCc2ccc(C3CCCCC3)c(C(F)(F)F)c2)ccc1CN1CC(C(=O)O)C1,Potency,[1],"inconclusive: 16.5 µM [inhibitor, partial curve]"
same,Potency,[2],inactive

# Source: PubChem BioAssay (NCATS)
